The campaign covered roughly 360,000 compounds. About 25,000 (6.9%) were called active. The inconclusive results got no clear call from the source; some entries with a clear call stand among them for comparison. The call rests on the fitted dose curve; in most records, active means well fitted inhibition curve with a large enough effect; inconclusive means small, poorly fitted or top-dose-only effect; inactive means flat fitted curve, though single readings scatter. Potencies beside an inconclusive call are fits to weak or partial responses and may not hold up.
target: Luciferin 4-monooxygenase (Photinus pyralis) (UniProt P08659); test: qHTS profiling assay for firefly luciferase inhibitor/activator using purifed enzyme and Km concentrations of substrates (counterscreen for miR-21 project); settings: purified FLuc, luminescence inhibition; series mostly up to 57.5 µM; activity change, negative = inhibition: at the top concentration; further: nearly all actives have a fitted effect of over 55% in size;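 on activity change, negative = inhibition: plate controls were vehicle for no effect and reference inhibitor for full effect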
Outline: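 Purified P. pyralis luciferase, 10 nM final, with Km-level 10 uM D-luciferin and 10 uM ATP in 50 mM Tris acetate pH 7.5, 10 mM Mg acetate, 0.01% Tween-20, 0.05% BSA; 6-point qHTS titration about 60 µM downward; luminescence read.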
Potency means the concentration at half of the fitted maximal effect; tags describe the fitted curve by direction and shape.

Chain of UniProt P08659 (P08659 whole entry, looked up): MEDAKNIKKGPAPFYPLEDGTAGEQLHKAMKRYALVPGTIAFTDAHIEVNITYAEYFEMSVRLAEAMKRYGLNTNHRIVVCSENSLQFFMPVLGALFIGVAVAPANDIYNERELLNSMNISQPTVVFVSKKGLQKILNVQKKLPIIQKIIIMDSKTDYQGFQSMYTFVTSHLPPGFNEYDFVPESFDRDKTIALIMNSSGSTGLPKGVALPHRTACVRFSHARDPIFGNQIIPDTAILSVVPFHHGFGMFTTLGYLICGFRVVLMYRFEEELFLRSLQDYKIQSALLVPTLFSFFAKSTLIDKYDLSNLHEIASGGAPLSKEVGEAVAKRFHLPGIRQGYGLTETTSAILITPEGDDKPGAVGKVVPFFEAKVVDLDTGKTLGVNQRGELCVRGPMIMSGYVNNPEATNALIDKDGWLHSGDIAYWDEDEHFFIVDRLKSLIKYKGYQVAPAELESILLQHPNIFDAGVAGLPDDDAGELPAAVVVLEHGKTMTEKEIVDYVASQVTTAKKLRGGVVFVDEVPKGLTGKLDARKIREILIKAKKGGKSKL

Compound	Potency	activity change, negative = inhibition
CCN1CCN(Cc2ccc(NC(=O)c3cc(NC(=O)C(=O)c4c[nH]c5ccccc45)cc(OC)c3)cc2C(F)(F)F)CC1	active: 9.53 µM	
CCN(CC)c1ccc(NC(=O)c2ccc3c(c2)c(C)c(C)n3C)cc1	active: 9.53 µM	
N#Cc1c(-c2cccc(Br)c2)cc(-c2ccco2)[nH]c1=O	inconclusive: 37.9 µM [inhibitor, partial curve, poor fit]	
CN(C)S(=O)(=O)c1cccc(COc2ccccc2C(=O)Nc2ccccc2)c1	inconclusive: 19 µM [inhibitor, partial curve, poor fit]	
CCOC(=O)N1CCc2c(sc(NCc3cccs3)c2C(=O)Nc2cc(OC)ccc2OC)C1	inconclusive: 23.9 µM [inhibitor, partial curve, poor fit]	
CCOc1ccc(N(CC(=O)Nc2ccc(C)c(C)c2)S(=O)(=O)c2c(C)noc2C)cc1		inactive: 0.783%
CSc1ccc(NC(=O)Nc2ccc(C(=O)NCC(=O)O)cc2)cc1	inconclusive: 37.9 µM [inhibitor, single point]	
Cc1ccc(-n2ncc(Cl)c2C(=O)NC2CC2)cc1	active: 10.7 µM	
Cc1cc(C)c(Nc2cc(S(=O)(=O)O)c(N)c3c2C(=O)c2ccccc2C3=O)c(C)c1	inconclusive: 26.9 µM [inhibitor, single point]	
CC1(C)Cc2nc3sc(C(N)=O)c(N)c3cc2CO1	inconclusive: 19 µM [inhibitor, partial curve]	
COc1ccccc1C1=NOC(COc2ccc3c(C)cc(=O)oc3c2)C1 (stereo not drawn)	inconclusive: 37.9 µM [inhibitor, single point]	
COc1cccc(N2CCN(CC(=O)Nc3ccnn3C3CCCC3)CC2)c1		inactive: 3.51%
CC(=O)c1c(C)nc(-c2ccccc2)nc1N	inconclusive: 37.9 µM [inhibitor, partial curve, poor fit]	
CC(=O)N(C1=C(Cl)C(=O)c2ccccc2C1=O)C1CCCCC1	inconclusive: 4.26 µM [inhibitor, partial curve]	
CS(=O)(=O)N1N=C(c2ccccc2)CC1c1ccc2nccnc2c1 (stereo not drawn)	inconclusive: 21.3 µM [inhibitor, partial curve, poor fit]	
Cc1cc(C(=O)O)ccc1N=Cc1c(O)ccc2ccccc12	active: 0.757 µM	
CCSc1ncc(Cl)c(C(=O)Nc2sc(C(C)=O)c(C)c2C(=O)OC)n1		inactive: 3.87%
O=C(CCC1CCN(C(=O)c2ccco2)CC1)NCc1ccc(F)cc1		inactive: 1.47%
CCc1n[nH]c(=S)n1/N=C/c1ccc(N(C)c2ccccc2)cc1	inconclusive: 30.1 µM [inhibitor, single point]	
Cc1cc(/C=C2/SC(=O)N(CC(=O)N3CCCC3)C2=O)c(C)n1C	inconclusive: 23.9 µM [inhibitor, single point]	
Cc1c(Cl)cccc1Nc1nc(N)nc(CSc2ncccn2)n1	inconclusive: 37.9 µM [inhibitor, partial curve, poor fit]	
CCOC(=O)Cc1csc(NC(=O)Cc2cccs2)n1	inconclusive: 37.9 µM [inhibitor, partial curve, poor fit]	

Compound	Potency	activity change, negative = inhibition
COc1cc(/C=N/NC(=O)c2ccccn2)ccc1OC(=O)c1cccs1	active: 13.5 µM	
CN1C(=O)/C(=C/c2cc(N=Nc3ccccc3)ccc2O)SC1=S	inconclusive: 15.1 µM [inhibitor, partial curve]	
Cc1nn(-c2ccccc2)c(C)c1NC(=O)CCl		inactive: -1.67%
CC(=O)Nc1ccc(NC(=O)CSc2nnc3c4cc(Br)ccc4n(C)c3n2)cc1		inactive: 0.306%
c1ccc2cc3[nH]c(CN4CCOCC4)nc3cc2c1	inconclusive: 30.1 µM [inhibitor, partial curve, poor fit]	
COc1ccc(C(=O)Nc2nccs2)cc1OC	inconclusive: 19 µM [inhibitor, single point]	
CC1=Nc2ccccc2N=C(NC(=O)/C=C/C(=O)O)C1c1ccccc1 (stereo not drawn)	inconclusive: 16.9 µM [inhibitor, partial curve]	
O=Cc1ccc(-c2nc3ccccc3s2)o1	active: 10.7 µM	
CCn1c(CNC(=O)COc2ccc(C(C)C)cc2)nnc1SCC(=O)Nc1ccc(F)cc1	inconclusive: 30.1 µM [inhibitor, partial curve, poor fit]	
Cc1ccc(C2NNC(=O)C2NC(=O)c2ccccc2)cc1 (stereo not drawn)	inconclusive: 23.9 µM [inhibitor, single point]	
COc1ccc(-c2cc(-c3ccccc3)nc(SCC(=O)Nc3nccs3)c2C#N)cc1	active: 13.5 µM	
CCOc1ccc(NC(=S)NNC(=O)c2ccc(Br)cc2)cc1	inconclusive: 21.3 µM [inhibitor, single point]	
CC(=O)NCCC(=O)Nc1sc2c(c1-c1nc3ccccc3[nH]1)CCCC2	inconclusive: 21.3 µM [inhibitor, partial curve, poor fit]	
COc1cccc2sc(Nc3nnc(-c4ccccc4Cl)o3)nc12	active: 12 µM	
C=C(C)COc1ccc2c(C)c(CC(=O)N3C[C@H]4C[C@@H](C3)c3cccc(=O)n3C4)c(=O)oc2c1C	inconclusive: 37.9 µM [inhibitor, partial curve, poor fit]	
CCSc1ccccc1-c1nc(-c2ccncc2)no1	inconclusive: 15.1 µM [inhibitor, partial curve, poor fit]	
CCCCC(=O)Nc1sc(C(=O)N(CC)CC)c(C)c1C(=O)OC	inconclusive: 21.3 µM [inhibitor, partial curve, poor fit]	
COc1cc(C(c2c(C)[nH][nH]c2=O)c2c(C)[nH][nH]c2=O)ccc1OC(=O)c1ccccc1F	inconclusive: 16.9 µM [inhibitor, partial curve, poor fit]	
CS(=O)(=O)c1ccccc1C(=O)Nc1cccc(-c2nc3ccccc3o2)c1	active: 10.7 µM	
O=C1CSC(=O)N1CC(O)COc1ccc(Cl)cc1 (stereo not drawn)	inconclusive: 23.9 µM [inhibitor, single point]	
Cn1c(=O)c2[nH]c(COc3ccc(C(C)(C)C)cc3)nc2n(C)c1=O	inconclusive: 37.9 µM [inhibitor, single point]	

From PubChem BioAssay AID588342 (National Center for Advancing Translational Sciences (NCATS), 2011)
